Where a chain is given by its changes, count along the chain named. The list shows a part of the results.
T1: RBFOX1 RRM (Homo sapiens, UniProt Q9NWB1 109-208)
T1 sequence: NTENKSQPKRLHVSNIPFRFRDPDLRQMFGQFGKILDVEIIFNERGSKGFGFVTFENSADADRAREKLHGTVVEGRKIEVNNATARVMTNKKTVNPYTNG

B1: UCAUAAG (DNA:RNA)
RNA: GGGAGACCGGAAUUCAGAUUGUCCUCAUAAGUUAAAUCCCGUCGUAGCCACCA
DNA 1: CAATCTGAATTCCGGTCTCCC
DNA 2: TGGTGGCTACGACGGGATT
B2: GCGGGCU (DNA:RNA)
RNA: B1 RNA with U25G, A27G, U28G, A29G, A30C, G31U
DNA 1: CAATCTGAATTCCGGTCTCCC
DNA 2: TGGTGGCTACGACGGGATT
B3: UAGCCUU (DNA:RNA)
RNA: B1 RNA with C26A, A27G, U28C, A29C, A30U, G31U
DNA 1: CAATCTGAATTCCGGTCTCCC
DNA 2: TGGTGGCTACGACGGGATT
B4: AAGCAGU (DNA:RNA)
RNA: B1 RNA with U25A, C26A, A27G, U28C, A30G, G31U
DNA 1: CAATCTGAATTCCGGTCTCCC
DNA 2: TGGTGGCTACGACGGGATT
B5: GUUAACU (DNA:RNA)
RNA: B1 RNA with U25G, C26U, A27U, U28A, A30C, G31U
DNA 1: CAATCTGAATTCCGGTCTCCC
DNA 2: TGGTGGCTACGACGGGATT
B6: UUAGACC (DNA:RNA)
RNA: B1 RNA with C26U, U28G, A30C, G31C
DNA 1: CAATCTGAATTCCGGTCTCCC
DNA 2: TGGTGGCTACGACGGGATT
B7: AAUUACU (DNA:RNA)
RNA: B1 RNA with U25A, C26A, A27U, A30C, G31U
DNA 1: CAATCTGAATTCCGGTCTCCC
DNA 2: TGGTGGCTACGACGGGATT
B8: AGCCGAU (DNA:RNA)
RNA: B1 RNA with U25A, C26G, A27C, U28C, A29G, G31U
DNA 1: CAATCTGAATTCCGGTCTCCC
DNA 2: TGGTGGCTACGACGGGATT
B9: GGUAGCU (DNA:RNA)
RNA: GGGAGACCGGAAUUCAGAUUGUCCGGUAGCUUUAAAUCCCGUCGUAGCCACCA
DNA 1: CAATCTGAATTCCGGTCTCCC
DNA 2: TGGTGGCTACGACGGGATT
B10: GGGAGGU (DNA:RNA)
RNA: B9 RNA with U27G, C30G
DNA 1: CAATCTGAATTCCGGTCTCCC
DNA 2: TGGTGGCTACGACGGGATT
B11: CCCUGCG (DNA:RNA)
RNA: B1 RNA with U25C, A27C, A29G, A30C
DNA 1: CAATCTGAATTCCGGTCTCCC
DNA 2: TGGTGGCTACGACGGGATT
B12: GCACAGA (DNA:RNA)
RNA: B1 RNA with U25G, U28C, A30G, G31A
DNA 1: CAATCTGAATTCCGGTCTCCC
DNA 2: TGGTGGCTACGACGGGATT
B13: CACGCGU (DNA:RNA)
RNA: B9 RNA with G25C, G26A, U27C, A28G, G29C, C30G
DNA 1: CAATCTGAATTCCGGTCTCCC
DNA 2: TGGTGGCTACGACGGGATT
B14: CGAGGGC (DNA:RNA)
RNA: B9 RNA with G25C, U27A, A28G, C30G, U31C
DNA 1: CAATCTGAATTCCGGTCTCCC
DNA 2: TGGTGGCTACGACGGGATT
B15: CGCGCUC (DNA:RNA)
RNA: B9 RNA with G25C, U27C, A28G, G29C, C30U, U31C
DNA 1: CAATCTGAATTCCGGTCTCCC
DNA 2: TGGTGGCTACGACGGGATT
B16: GAGUUAA (DNA:RNA)
RNA: B1 RNA with U25G, C26A, A27G, A29U, G31A
DNA 1: CAATCTGAATTCCGGTCTCCC
DNA 2: TGGTGGCTACGACGGGATT
B17: CUACAUC (DNA:RNA)
RNA: B1 RNA with U25C, C26U, U28C, A30U, G31C
DNA 1: CAATCTGAATTCCGGTCTCCC
DNA 2: TGGTGGCTACGACGGGATT
B18: UUCGAGU (DNA:RNA)
RNA: B1 RNA with C26U, A27C, U28G, A30G, G31U
DNA 1: CAATCTGAATTCCGGTCTCCC
DNA 2: TGGTGGCTACGACGGGATT
B19: UCCUGUA (DNA:RNA)
RNA: B1 RNA with A27C, A29G, A30U, G31A
DNA 1: CAATCTGAATTCCGGTCTCCC
DNA 2: TGGTGGCTACGACGGGATT
B20: CAAUGUA (DNA:RNA)
RNA: B1 RNA with U25C, C26A, A29G, A30U, G31A
DNA 1: CAATCTGAATTCCGGTCTCCC
DNA 2: TGGTGGCTACGACGGGATT
B21: UAGUUGC (DNA:RNA)
RNA: B1 RNA with C26A, A27G, A29U, A30G, G31C
DNA 1: CAATCTGAATTCCGGTCTCCC
DNA 2: TGGTGGCTACGACGGGATT
B22: CUAUGGU (DNA:RNA)
RNA: B9 RNA with G25C, G26U, U27A, A28U, C30G
DNA 1: CAATCTGAATTCCGGTCTCCC
DNA 2: TGGTGGCTACGACGGGATT
B23: UACGAAA (DNA:RNA)
RNA: B1 RNA with C26A, A27C, U28G, G31A
DNA 1: CAATCTGAATTCCGGTCTCCC
DNA 2: TGGTGGCTACGACGGGATT
B24: ACAGUAG (DNA:RNA)
RNA: B1 RNA with U25A, U28G, A29U
DNA 1: CAATCTGAATTCCGGTCTCCC
DNA 2: TGGTGGCTACGACGGGATT
B25: CACUCAC (DNA:RNA)
RNA: B1 RNA with U25C, C26A, A27C, A29C, G31C
DNA 1: CAATCTGAATTCCGGTCTCCC
DNA 2: TGGTGGCTACGACGGGATT
B26: AGACCCA (DNA:RNA)
RNA: B9 RNA with G25A, U27A, A28C, G29C, U31A
DNA 1: CAATCTGAATTCCGGTCTCCC
DNA 2: TGGTGGCTACGACGGGATT
B27: CUCCGCG (DNA:RNA)
RNA: B9 RNA with G25C, G26U, U27C, A28C, U31G
DNA 1: CAATCTGAATTCCGGTCTCCC
DNA 2: TGGTGGCTACGACGGGATT
B28: AACUGCU (DNA:RNA)
RNA: B9 RNA with G25A, G26A, U27C, A28U
DNA 1: CAATCTGAATTCCGGTCTCCC
DNA 2: TGGTGGCTACGACGGGATT
B29: UCUGGUC (DNA:RNA)
RNA: B9 RNA with G25U, G26C, A28G, C30U, U31C
DNA 1: CAATCTGAATTCCGGTCTCCC
DNA 2: TGGTGGCTACGACGGGATT
B30: GACUAGG (DNA:RNA)
RNA: B1 RNA with U25G, C26A, A27C, A30G
DNA 1: CAATCTGAATTCCGGTCTCCC
DNA 2: TGGTGGCTACGACGGGATT
B31: CAGAAAC (DNA:RNA)
RNA: B1 RNA with U25C, C26A, A27G, U28A, G31C
DNA 1: CAATCTGAATTCCGGTCTCCC
DNA 2: TGGTGGCTACGACGGGATT

Target: T1, RBFOX1 RRM
Experiment: EMSA; HiTS-Eq, 1 nM pool, 10 min; buffer printed only for the single-RNA assays: 10 mM Tris pH 7.5, 150 mM NaCl, 3.4 mM EDTA, 0.001% NP-40, 30 C
Settings: tags: His6 N-terminal (pET28a); label: 5' 32P
Outline: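 Purified wild-type or mutant RbFox RRM at increasing concentrations was equilibrated with 1 nM of 5′-radiolabelled RNA carrying 7 randomized nucleotides for 10 min in 50 µL. Unbound RNA was separated by 8% native PAGE and sequenced. Relative association constants came from read-count changes of each RNA species compared with the control reaction, normalised to the cognate motif.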

| Binder | binding signal |
| --- | --- |
| B1 | 0.00754 KA relative to UGCAUGU |
| B2 | 0.0197 KA relative to UGCAUGU |
| B3 | 0.0105 KA relative to UGCAUGU |
| B4 | 0.00499 KA relative to UGCAUGU |
| B5 | 0.00708 KA relative to UGCAUGU |
| B6 | 0.00675 KA relative to UGCAUGU |
| B7 | 0.00362 KA relative to UGCAUGU |
| B8 | 0.00393 KA relative to UGCAUGU |
| B9 | 0.0165 KA relative to UGCAUGU |
| B10 | 0.0199 KA relative to UGCAUGU |
| B11 | 0.0142 KA relative to UGCAUGU |
| B12 | 0.0103 KA relative to UGCAUGU |
| B13 | 0.00634 KA relative to UGCAUGU |
| B14 | 0.00599 KA relative to UGCAUGU |
| B15 | 0.0135 KA relative to UGCAUGU |
| B16 | 0.00396 KA relative to UGCAUGU |

| Binder | binding signal |
| --- | --- |
| B17 | 0.00247 KA relative to UGCAUGU |
| B18 | 0.0155 KA relative to UGCAUGU |
| B19 | 0.00677 KA relative to UGCAUGU |
| B20 | 0.00174 KA relative to UGCAUGU |
| B21 | 0.0221 KA relative to UGCAUGU |
| B22 | 0.0125 KA relative to UGCAUGU |
| B23 | 0.00779 KA relative to UGCAUGU |
| B24 | 0.00453 KA relative to UGCAUGU |
| B25 | 0.00248 KA relative to UGCAUGU |
| B26 | 0.000354 KA relative to UGCAUGU |
| B27 | 0.00395 KA relative to UGCAUGU |
| B28 | 0.00531 KA relative to UGCAUGU |
| B29 | 0.0173 KA relative to UGCAUGU |
| B30 | 0.0112 KA relative to UGCAUGU |
| B31 | 0.00409 KA relative to UGCAUGU |
